US5994629A, “Positive selection” (priority 1991, dated 1999)

What was measured:
Assay type in all cases: cell-based
[1] = test system: tobacco leaf discs; test: Inhibition by SL of shoot formation induced by BA and BA3GN sodium salt; details: BA 0.5 mg/l, BA3GN sodium salt 15 mg/l
[2] = test system: wild type tobacco leaf discs co-cultivated with Agrobacterium; test: Positive selection of transformed shoots using BA3GN sodium salt
[3] = test system: tobacco leaf discs co-cultivated with Agrobacterium; test: Positive selection combined with negative selection
Description: In addition, the experiment included selection using BA3GN sodium salt together with saccharo 1,4-lactone (SL) (a strong specific inhibitor of the introduced β-glucuronidase).
The methods used were essentially as described below in Example 13, but Gamborg B5 substrate was used instead of MSO substrate.
The experiment with BA together with kanamycin, which is the traditional negative selection system, was repeated as two independent experiments with 54 leaf discs per experiment. A single GUS-positive shoot was detected among a total of 23 selected shoots. The results for BA3GN sodium salt were obtained using 324 leaf discs. The experiment with SL (saccharo 1,4-lactone) was performed once with a total of 162 leaf discs.

[4] = test system: GUS- tobacco leaf discs; test: Effect of ammonium nitrate on shoot formation from BA3GN treated leaf discs, GUS-; details: pH 7
Description: (§1) The methods used were the same as those described in Example 3, with the exception that Gamborg B5 substrate was used instead of MSO substrate.

[5] = test system: GUS+ tobacco leaf discs; test: Effect of ammonium nitrate on shoot formation from BA3GN treated leaf discs, GUS+
Description: as §1

[6] = test system: tobacco leaf discs; test: D-xylose and D-xylulose as carbohydrate sources, tobacco; details: xylose 0, xylulose 10 g/l
Method: The standard leaf disc procedure for tobacco as described in Example 13 is performed, except that inoculation with Agrobacterium and the co-cultivation step are omitted. Benzyladenine (1 mg/l) is used as cytokinin and the carbohydrate content is as indicated below. The number of regenerated shoots from each leaf disc are registered after 21 days.

[7] = 7.5 mg/l, BS10, B5 + ammon. + SL
[8] = 7.5 mg/l, Both strains, average
[9] = 7.5 mg/l, LDH1, B5 + ammon. + SL
[10] = 7.5 mg/l, strain BS10, co-cultivation substrate B5
[11] = 15 mg/l, BS10, B5 + ammon. + SL
[12] = 15 mg/l, LDH1, BS + ammon. + SL
[13] = kanamycin 0 mg/l, BA3GN sodium salt 15 mg/l
[14] = kanamycin 0 mg/l, BA3GN sodium salt 15 mg/l + SL (10 mM)
[15] = kanamycin 33 mg/l, BA3GN sodium salt 15 mg/l
[16] = kanamycin 100 mg/l, BA3GN sodium salt 15 mg/l
[17] = kanamycin 300 mg/l, BA 1 mg/l or BA3GN sodium salt 15 mg/l
[18] = 7.5 mg/l BA3GN, ammonium nitrate 25 mM, pH 7
[19] = 7.5 mg/l BA3GN, ammonium nitrate 35 mM, pH 7
[20] = 7.5 mg/l BA3GN, ammonium nitrate 55 mM, pH 7
[21] = 7.5 mg/l BA3GN, ammonium nitrate 65 mM, pH 7
[22] = 15 mg/l BA3GN, ammonium nitrate 25 mM, pH 7
[23] = 15 mg/l BA3GN, ammonium nitrate 35 mM, pH 7
[24] = 15 mg/l BA3GN, ammonium nitrate 45 mM, pH 7
[25] = 15 mg/l BA3GN, ammonium nitrate 55 mM, pH 7
[26] = 15 mg/l BA3GN, ammonium nitrate 65 mM, pH 7
[27] = 30 mg/l BA3GN, ammonium nitrate 25 mM, pH 7
[28] = 30 mg/l BA3GN, ammonium nitrate 35 mM, pH 7
[29] = 30 mg/l BA3GN, ammonium nitrate 45 mM, pH 7
[30] = 30 mg/l BA3GN, ammonium nitrate 55 mM, pH 7
[31] = 30 mg/l BA3GN, ammonium nitrate 65 mM, pH 7

O=C([O-])[C@H]1O[C@@H](n2cnc(NCc3ccccc3)c3ncnc2-3)[C@H](O)[C@@H](O)[C@@H]1O.[Na+]
Number of regenerated shoots per leaf disc ([1]; SL 0 mM): 5.6 | relative number of regenerated shoots per leaf disc ([1]; SL 0 mM): 100% | Number of regenerated shoots per leaf disc ([1]; SL 16 mM): 1.4 | relative number of regenerated shoots per leaf disc ([1]; SL 16 mM): 25% | % GUS+ shoots among total shoots ([2]; 7.5 mg/l, BS10, B5 + ammon.): 0.7% | % GUS+ shoots among total shoots [2, 7]: 6.l | GUS+ shoots per leaf disc [2, 7]: 0.3 | % GUS+ shoots among total shoots ([2]; 7.5 mg/l, BS10, average): 4.4% | GUS+ shoots per leaf disc ([2]; 7.5 mg/l, BS10, average): 0.1 | % GUS+ shoots among total shoots [2, 8]: 5.1% | GUS+ shoots per leaf disc [2, 8]: 0.2 | % GUS+ shoots among total shoots ([2]; 7.5 mg/l, LDH1, B5): 7.8% | GUS+ shoots per leaf disc ([2]; 7.5 mg/l, LDH1, B5): 0.2 | % GUS+ shoots among total shoots ([2]; 7.5 mg/l, LDH1, B5 + ammon.): 5.3% | GUS+ shoots per leaf disc ([2]; 7.5 mg/l, LDH1, B5 + ammon.): 0.2 | % GUS+ shoots among total shoots [2, 9]: 4.7% | GUS+ shoots per leaf disc [2, 9]: 0.2 | % GUS+ shoots among total shoots ([2]; 7.5 mg/l, LDH1, average): 5.9% | GUS+ shoots per leaf disc ([2]; 7.5 mg/l, LDH1, average): 0.2 | % GUS+ shoots among total shoots [2, 10]: 6.6% | GUS+ shoots per leaf disc [2, 10]: 0.1 | % GUS+ shoots among total shoots ([2]; 15 mg/l, BS10, B5): 6.0% | GUS+ shoots per leaf disc ([2]; 15 mg/l, BS10, B5): 0.3 | % GUS+ shoots among total shoots ([2]; 15 mg/l, BS10, B5 + ammon.): 8.7% | GUS+ shoots per leaf disc ([2]; 15 mg/l, BS10, B5 + ammon.): 0.4 | % GUS+ shoots among total shoots [2, 11]: 5.5% | GUS+ shoots per leaf disc [2, 11]: 0.3 | % GUS+ shoots among total shoots ([2]; 15 mg/l, BS10, average): 6.7% | GUS+ shoots per leaf disc ([2]; 15 mg/l, BS10, average): 0.3 | % GUS+ shoots among total shoots ([2]; 15 mg/l, Both strains, average): 7.4% | GUS+ shoots per leaf disc ([2]; 15 mg/l, Both strains, average): 0.3 | % GUS+ shoots among total shoots ([2]; 15 mg/l, LDH1, B5): 9.0% | GUS+ shoots per leaf disc ([2]; 15 mg/l, LDH1, B5): 0.4 | % GUS+ shoots among total shoots ([2]; 15 mg/l, LDH1, B5 + ammon.): 7.6% | GUS+ shoots per leaf disc ([2]; 15 mg/l, LDH1, B5 + ammon.): 0.3 | % GUS+ shoots among total shoots [2, 12]: 7.7% | GUS+ shoots per leaf disc [2, 12]: 0.3 | % GUS+ shoots among total shoots ([2]; 15 mg/l, LDH1, average): 8.1% | GUS+ shoots per leaf disc ([2]; 15 mg/l, LDH1, average): 0.3 | GUS+ shoots among total shoots, % [3, 13]: 7.4% | GUS+ shoots among total shoots, compared to BA + Kanamycin [3, 13]: 1.7 x | GUS+ shoots per leaf disc, No. [3, 13]: 0.3 | GUS+ shoots per leaf disc, compared to BA + Kanamycin [3, 13]: 30 x | GUS+ shoots among total shoots, % [3, 14]: 0.9% | GUS+ shoots among total shoots, compared to BA + Kanamycin [3, 14]: 0.2 x | GUS+ shoots among total shoots, % [3, 15]: 4.7% | GUS+ shoots among total shoots, compared to BA + Kanamycin [3, 15]: 1.1 x | GUS+ shoots per leaf disc, No. [3, 15]: 0.4 | GUS+ shoots per leaf disc, compared to BA + Kanamycin [3, 15]: 40 x | GUS+ shoots among total shoots, % [3, 16]: 3.2% | GUS+ shoots among total shoots, compared to BA + Kanamycin [3, 16]: 0.7 x | GUS+ shoots per leaf disc, No. [3, 16]: 0.2 | GUS+ shoots per leaf disc, compared to BA + Kanamycin [3, 16]: 20 x | GUS+ shoots among total shoots, % [3, 17]: 47.1% | GUS+ shoots among total shoots, compared to BA + Kanamycin [3, 17]: 11 x | GUS+ shoots per leaf disc, No. [3, 17]: 0.1 | GUS+ shoots per leaf disc, compared to BA + Kanamycin [3, 17]: 10 x | number of shoots, GUS- ([4]; 7.5 mg/l BA3GN, ammonium nitrate 25 mM): 0 | number of shoots, GUS- ([4]; 7.5 mg/l BA3GN, ammonium nitrate 35 mM): 1 | number of shoots, GUS- ([4]; 7.5 mg/l BA3GN, ammonium nitrate 45 mM): 0 | number of shoots, GUS- ([4]; 7.5 mg/l BA3GN, ammonium nitrate 55 mM): 0 | number of shoots, GUS- ([4]; 7.5 mg/l BA3GN, ammonium nitrate 65 mM): 0 | number of shoots, GUS- ([4]; 15 mg/l BA3GN, ammonium nitrate 25 mM): 2 | number of shoots, GUS- ([4]; 15 mg/l BA3GN, ammonium nitrate 35 mM): 7 | number of shoots, GUS- ([4]; 15 mg/l BA3GN, ammonium nitrate 45 mM): 6 | number of shoots, GUS- ([4]; 15 mg/l BA3GN, ammonium nitrate 65 mM): 2 | Sel. factor (GUS+/GUS- shoots) [5, 18]: > 4 x | number of shoots, GUS+ [5, 18]: 4 | Sel. factor (GUS+/GUS- shoots) [5, 19]: 6 x | number of shoots, GUS+ [5, 19]: 6 | number of shoots, GUS+ ([5]; 7.5 mg/l BA3GN, ammonium nitrate 45 mM, pH 7): 0 | Sel. factor (GUS+/GUS- shoots) [5, 20]: > 14 x | number of shoots, GUS+ [5, 20]: 14 | Sel. factor (GUS+/GUS- shoots) [5, 21]: > 2 x | number of shoots, GUS+ [5, 21]: 2 | Sel. factor (GUS+/GUS- shoots) ([5]; 7.5 mg/l BA3GN, line 'Average'): 26 x | number of shoots, GUS+ ([5]; 7.5 mg/l BA3GN, line 'Average' over ammonium nitrate 25-65 mM): 26 | Sel. factor (GUS+/GUS- shoots) [5, 22]: 17 x | number of shoots, GUS+ [5, 22]: 33 | Sel. factor (GUS+/GUS- shoots) [5, 23]: 7 x | number of shoots, GUS+ [5, 23]: 50 | Sel. factor (GUS+/GUS- shoots) [5, 24]: 3 x | number of shoots, GUS+ [5, 24]: 20 | Sel. factor (GUS+/GUS- shoots) [5, 25]: > 34 x | number of shoots, GUS+ [5, 25]: 34 | Sel. factor (GUS+/GUS- shoots) [5, 26]: 4 x | number of shoots, GUS+ [5, 26]: 8 | Sel. factor (GUS+/GUS- shoots) ([5]; 15 mg/l BA3GN, line 'Average'): 9 x | number of shoots, GUS+ ([5]; 15 mg/l BA3GN, line 'Average' over ammonium nitrate 25-65 mM): 145 | Sel. factor (GUS+/GUS- shoots) [5, 27]: 2 x | number of shoots, GUS+ [5, 27]: 73 | Sel. factor (GUS+/GUS- shoots) [5, 28]: 2 x | number of shoots, GUS+ [5, 28]: 73 | Sel. factor (GUS+/GUS- shoots) [5, 29]: 2 x | number of shoots, GUS+ [5, 29]: 57 | Sel. factor (GUS+/GUS- shoots) [5, 30]: 3 x | number of shoots, GUS+ [5, 30]: 37 | Sel. factor (GUS+/GUS- shoots) [5, 31]: 1 x | number of shoots, GUS+ [5, 31]: 25 | Sel. factor (GUS+/GUS- shoots) ([5]; 30 mg/l BA3GN, line 'Average'): 2 x | number of shoots, GUS+ ([5]; 30 mg/l BA3GN, line 'Average' over ammonium nitrate 25-65 mM): 265

O=C(CO)[C@@H](O)[C@H](O)CO [D-xylulose]
Number of regenerated shoots each leaf disc ([6]; sucrose 0): 4.1 | Number of regenerated shoots each leaf disc ([6]; sucrose 10 g/l): 11.7
